Laboratory results as given in the GPR68 mutational scans of Howard et al. (2025).
The least precise scores are not listed. Two further conditions of the source, in which the scores hardly spread, are not listed. Names with del lack the residues named; names with ins carry added residues between the positions named. For some of these results: How much ogerin was present is not stated here.

B1: GPR68, Q15743 (parent)
chain: MGNITADNSSMSCTIDHTIHQTLAPVVYVTVLVVGFPANCLSLYFGYLQIKARNELGVYLCNLTVADLFYICSLPFWLQYVLQHDNWSHGDLSCQVCGILLYENIYISVGFLCCISVDRYLAVAHPFRFHQFRTLKAAVGVSVVIWAKELLTSIYFLMHEEVIEDENQHRVCFEHYPIQAWQRAINYYRFLVGFLFPICLLLASYQGILRAVRRSHGTQKSRKDQIQRLVLSTVVIFLACFLPYHVLLLVRSVWEASCDFAKGVFNAYHFSLLLTSFNCVADPVLYCFVSETTHRDLARLRGACLAFLTCSRTGRAREAYPLGAPEASGKSGAQGEEPELLTKLHPAFQTPNSPGSGGFPTGRLA

What was measured:
[1] = variants of: B1; test: cAMP reporter score (Enrich2 score, wild type = 0); higher = more signal; HEK293T, FACS bins
[2] = variants of: B1; test: surface expression score (Enrich2 score, wild type = 0); higher = more signal; HEK293T, FACS bins

Row | Variant | cAMP reporter score ([1]; pH 5.5) | cAMP reporter score ([1]; pH 6) | cAMP reporter score ([1]; pH 6, modulator: ogerin) | cAMP reporter score ([1]; pH 6.5, modulator: ogerin) | surface expression score [2]
1 | V33_V34insGSG | -1.31 | -1.47 | -1.82 | -1.22 | -2.4
2 | P25_V27del | -1.66 | -0.738 | -0.318 | -1.06 | -2.48
3 | I19_H20del | -1.32 | -1.45 | -1.93 | -1.38 | -1.72
4 | H17_T18insGSG | 0.73 | -0.478 | 0.457 | 1.15 | 0.706
5 | H20_Q21insGS | -1.57 | -1.31 | -2.35 | -1.56 | -1.95
6 | Y28_V29insGSG | -1.65 | -1.07 | -2.37 | -1.18 | -2.05
7 | L32del | -1.92 | – | -1.54 | -1.53 | -3.5
8 | V31_V33del | -1.46 | -0.449 | -0.986 | -1.1 | -1.99
9 | H20A | -0.962 | -0.764 | -1.43 | -1.28 | 1.79
10 | H20F | 0.197 | 0.012 | -0.893 | -0.67 | 1.93
11 | H20P | -1.28 | – | -0.614 | -1.07 | 0.506
12 | H20N | -0.855 | -0.284 | -0.972 | -0.929 | -0.58
13 | H20W | -0.86 | -0.353 | -1.32 | -0.602 | 2.13
14 | H20L | -1.03 | -0.504 | -1.2 | -1.07 | 1.34
15 | H20M | -1.06 | -0.609 | -1.26 | -1.04 | 1.84
16 | H20R | 0.781 | – | 1.9 | 3.06 | 1.74
17 | H20Y | -0.958 | -0.316 | -1.13 | -0.842 | 1.63
18 | H20T | -0.883 | -0.014 | -0.261 | -0.453 | -1.12
19 | H20K | 0.834 | 2.29 | 1.37 | 3.38 | -0.077
20 | H20C | -1.11 | -1.28 | -1.42 | -0.66 | -0.145
21 | H20V | -1.06 | -0.359 | – | -1.18 | 2

Row | Variant | cAMP reporter score ([1]; pH 5.5) | cAMP reporter score ([1]; pH 6) | cAMP reporter score ([1]; pH 6, modulator: ogerin) | cAMP reporter score ([1]; pH 6.5, modulator: ogerin) | surface expression score [2]
22 | H20D | -1.33 | – | -1.62 | -1.82 | -1.11
23 | H20I | -0.853 | -0.526 | -1.12 | -0.923 | 2.34
24 | H20S | -0.512 | -0.208 | -0.636 | -0.841 | 1
25 | H20G | -1.03 | -0.975 | -0.863 | -0.859 | 1.82
26 | H20E | -0.989 | -0.477 | -1.19 | -1.24 | -0.895
27 | H20Q | -0.567 | -0.602 | -0.31 | -1.38 | 1.01
28 | P25del | -1.4 | -0.4 | -1.34 | -0.914 | 1.01
29 | V29_T30insG | -1.9 | -0.744 | -1.6 | -1.39 | -2.03
30 | V33L | 0.168 | 0.243 | -0.52 | 0.968 | 0.3
31 | V33Y | -3.1 | – | -1.68 | -1.71 | -2.5
32 | V33H | -1.53 | -1.51 | -1.56 | -0.724 | -1.79
33 | V33P | -1.29 | 0.087 | -0.917 | -0.419 | -2.62
34 | V33A | -1.12 | 0.04 | -1.01 | -0.497 | -2.05
35 | V33S | -0.89 | -0.302 | 0.101 | -1.14 | -1.9
36 | V33D | -2.32 | -1.24 | -1.64 | -1.84 | -3.06
37 | V33G | -1.08 | -1.12 | -0.394 | -1.25 | -1.6
38 | V33T | 0.28 | -0.947 | -0.205 | 0.226 | -1.72
39 | V33N | -0.994 | -0.919 | -1.42 | -1.51 | -2.38
40 | V33W | -1.12 | – | -1.19 | -0.917 | -1.84
41 | V33C | -0.059 | -0.974 | 0.058 | -0.342 | -0.214
42 | V33R | -1.73 | -1.92 | -1.48 | -0.765 | -3.01

Row | Variant | cAMP reporter score ([1]; pH 5.5) | cAMP reporter score ([1]; pH 6) | cAMP reporter score ([1]; pH 6, modulator: ogerin) | cAMP reporter score ([1]; pH 6.5, modulator: ogerin) | surface expression score [2]
43 | V33M | 0.616 | 0.139 | 0.517 | 0.552 | -0.985
44 | V33F | 2.72 | -0.052 | – | – | 0.9
45 | V33I | -0.239 | 0.291 | 0.146 | 0.173 | -0.053
46 | V33K | -1.52 | -1.75 | -2 | -1.4 | -2.5
47 | V33E | -1.78 | -0.975 | -2.14 | -1.52 | –
48 | V26_V27insGSG | -0.473 | 0.045 | -0.882 | -0.266 | -1.96
49 | V31_L32del | -1.41 | -1.03 | -2.13 | -1.2 | -2.43
50 | T30del | -0.205 | 1.84 | 0.076 | 0.422 | -1.17
51 | D16_H17insGS | -0.415 | -0.132 | -0.457 | -0.678 | -1.22
52 | T18_I19insG | 0.563 | 1.68 | -0.038 | 0.638 | -0.299
53 | Q21_L23del | -1.42 | -0.628 | -1.94 | -1.03 | -3.4
54 | D16_H17del | -1.46 | -0.796 | -1.35 | -0.301 | 1.13
55 | L32_V33insGSG | -1.41 | -1.25 | -0.586 | -0.965 | -1.76
56 | I19_H20insGSG | -2.05 | -0.668 | -1.78 | -1.07 | -2.11
57 | I19_H20insGS | -1.05 | -0.036 | -1.71 | -0.362 | -2.28
58 | H20_Q21del | -1.57 | -0.475 | -1.36 | -1.31 | -0.859
59 | V26_V27insG | -0.071 | – | -1.47 | -0.308 | -2.85
60 | H17del | -0.656 | -1.02 | -1.04 | -0.643 | 0.193
61 | L23_A24del | -0.556 | -0.943 | -1.84 | -0.853 | -2.45
62 | V31_L32insG | -1.22 | -0.475 | – | -0.663 | -1.12
